In the supplement of paper PMC8183993:
Several values for one entry are separate records, joined by “and”; a condition that tells them apart may be missing. Equal values may be shown once. Where a name gives a salt, the structure may show the parent alone. ± gives the standard deviation of the averaged measurements. Over roughly 3,100 compounds, “mean cytoplasmic OPP incorporation (global translation) relative to DMSO” has its median near 100; the lowest 2% begin near 56. Some of the results follow.

What follows are compounds tested on U2OS (assay: mean cytoplasmic OPP incorporation (global translation) relative to DMSO (% of DMSO); higher = more protein synthesis). Details: 10 µM; 24 h.
Description: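 Primary image-based screen in U2OS cells: compounds at 10 uM for 24 h, then a 1 h o-propargyl-puromycin (OPP) pulse, click labelling, and high-throughput microscopy. Mean cytoplasmic OPP intensity and nuclei count were normalised to DMSO wells within each plate (DMSO = 100) and averaged over triplicate plates.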

SMILES | mean cytoplasmic OPP incorporation
Cc1cc2c(s1)Nc1ccccc1N=C2N1CCN(C)CC1 [Olanzapine] | 105
CN1C(=O)C(Cc2c[nH]c3ccccc23)NC1=S (stereo not drawn) [Necrostatin-1] | 98.9
Cc1cc(C(=O)O)sc1C(N)C(=O)O (stereo not drawn) | 104
COc1cc2c(NC3CCN(C)CC3)nc(N3CCCN(C)CC3)nc2cc1OCCCN(C)C | 112
CC=CC1=C(C(=O)O)N2C(=O)[C@@H](NC(=O)[C@H](N)c3ccc(O)cc3)[C@H]2SC1 [Cefprozil hydrate (Cefzil)] | 99.7
O=S(=O)(O)Oc1ccc(C(c2ccc(OS(=O)(=O)O)cc2)c2ccccn2)cc1 [Sodium Picosulfate] | 99.5
NC(=O)CC[C@H](N)C(=O)O [L-Glutamine] | 115
CCn1c(-c2nonc2N)nc2c(C#CC(C)(C)O)ncc(OC[C@H]3CCCNC3)c21 | 97.6 ± 2.1
CCN(CC)CCOc1ccc(Nc2ncc3cc(-c4c(Cl)cccc4Cl)c(=O)n(C)c3n2)cc1 | 53.6
CCCCc1ccc2[nH]c(NC(=O)OC)nc2c1 [Parbendazole] | 72.5
COc1cc2ncnc(Nc3cccc(Cl)c3)c2cc1OC [AG-1478 (Tyrphostin AG-1478)] | 91
O=c1oc2cc(O)ccc2s1 [Tioxolone] | 100
CN1CCCN(C(c2ccccc2)c2ccc(Cl)cc2)CC1 (stereo not drawn) [Homochlorcyclizine dihydrochloride] | 104
C[C@@H]1C[C@H]2[C@@H]3CCC4=CC(=O)C=C[C@]4(C)[C@@]3(Cl)[C@@H](O)C[C@]2(C)[C@@]1(OC(=O)c1ccco1)C(=O)CCl [Mometasone furoate] | 96.6 ± 7
CCOC(=O)c1cnc2c(cnn2CC)c1NN=C(C)C [Etazolate hydrochloride] | 97.7
O=C(O)[C@H](CC(=O)N1C[C@H]2CCCC[C@H]2C1)Cc1ccccc1 [Mitiglinide calcium] | 110
C[C@]12CCC3=C4CCC(=O)C=C4CC[C@H]3[C@@H]1CC[C@@]2(O)CC#N [Dienogest] | 99.8
COc1cc2ncnc(-n3nc(-c4ccccn4)nc3N)c2cc1OC | 101
Nc1ncnc2c1ncn2C1OC(COP(=O)(O)O)C(O)C1O (stereo not drawn) [Adenosine 5'-monophosphate monohydrate] | 92.4
O=C(O)c1cc(/N=N/c2ccc(S(=O)(=O)Nc3ccccn3)cc2)ccc1O [Sulfasalazine] | 100
C=C1c2cccc(O)c2C(O)=C2C(=O)[C@]3(O)C(O)=C(C(N)=O)C(=O)[C@@H](N(C)C)[C@@H]3[C@@H](O)[C@H]12 [Methacycline HCl (Physiomycine)] | 103
NC(=O)c1ccc(I)c([N+](=O)[O-])c1 [Iniparib (BSI-201)] | 99.5
O=C(O)c1ccccc1Nc1cccc2c1C(=O)c1cccc(Nc3ccccc3C(=O)O)c1C2=O | 113
CCc1cccc(CC)c1NC(=O)CN(CC(=O)O)CC(=O)O [Etifenin] | 98.9
CN/C(=N\CCSCc1nc[nH]c1C)NC#N [Cimetidine] | 98.73 ± 0.22
CN/C(=N\CCSCc1nc[nH]c1C)NC#N [Cimetidine (Tagamet)] | 114
COc1ccc(C2=N[C@@H](c3ccc(Cl)cc3)[C@@H](c3ccc(Cl)cc3)N2C(=O)N2CCNC(=O)C2)c(OC(C)C)c1 [Nutlin-3] | 106

SMILES | mean cytoplasmic OPP incorporation
CC1CCN=C(N)S1 (stereo not drawn) [AMT hydrochloride] | 96.7
N#C/C(=C\c1ccc(O)c(O)c1)C(=O)NCCCc1ccccc1 | 92.7
Nc1cc(N2CCCCC2)nc(N)[n+]1[O-] [Minoxidil] | 103 ± 2.3
CS(=O)(=O)Nc1c(O)ccc2c1CCCC2C1=NCCN1 (stereo not drawn) | 93.7
N#Cc1cc(CN2CCC(Nc3ncnc4sc(Cl)cc34)CC2)ccc1F | 109
COc1ccc2cc([C@H](C)C(=O)O)ccc2c1 [Naproxen sodium] | 99.7
COc1ccc2cc([C@H](C)C(=O)O)ccc2c1 [Naproxen] | 103
COc1ccc2cc([C@H](C)C(=O)O)ccc2c1 [Naproxen (Aleve)] | 103
C[C@]12CCC(=O)C=C1[C@@H]1C[C@@H]1[C@H]1[C@@H]3[C@@H]4C[C@@H]4[C@@]4(CCC(=O)O4)[C@@]3(C)CC[C@@H]12 [Drospirenone] | 110
CC(C)C[C@H](NC(=O)[C@H](CCC(=O)O)NC(=O)CNC(=O)c1ccc(/C=C/C(=O)O)cc1)C(N)=O | 99.6
CC1=C(/C=C/C(C)=C/C=C/C(C)=C/CO)C(C)(C)CCC1 [all-trans-Retinol] | 101
OCCn1cc(-c2cnc3nnn(Cc4ccc5ncccc5c4)c3n2)cn1 | 98.9
Cc1ncc([N+](=O)[O-])n1CC(C)O (stereo not drawn) [Secnidazole] | 100
C/C=C(/C(=C/C)c1ccc(O)cc1)c1ccc(O)cc1 [Dienestrol] | 105
O=C(O)c1ccccc1OP(=O)(O)O [Fosfosal] | 97.4
CC(C)C[C@H](NC(=O)N1CCCCCC1)C(=O)N[C@H](Cc1cn(C)c2ccccc12)C(=O)N[C@H](Cc1ccccn1)C(=O)O | 99.8
CCCCn1c(=O)c2[nH]c(C34CC5CC(CC3C5)C4)nc2n(CCCO)c1=O | 117
CC1=C(/C=C/C(C)=C/C=C/C(C)=C\CO)C(C)(C)CCC1 [13-cis-Retinol] | 90.9
CCC(NC(C)C)C(O)c1ccc(O)c2[nH]c(=O)ccc12 (stereo not drawn) [Procaterol hydrochloride] | 98.7
O=C(NC[C@H](O)CO)c1ccncc1Nc1ccc(I)cc1F | 87.8
O=C(O)c1ccc2cc(-c3ccc(O)c(C45CC6CC(CC(C6)C4)C5)c3)ccc2c1 | 65.6
Cc1ccc(C(=O)Nc2ccc(CN3CCN(C)CC3)c(C(F)(F)F)c2)cc1C#Cc1cnc2[nH]ncc2c1 [GZD824 Dimesylate] | 37.4
Oc1ccc(-c2nc(-c3ccc(F)cc3)c(-c3ccncc3)[nH]2)cc1 | 102 and 97.8
O=C(Nc1ccc(S(=O)(=O)Nc2ccccc2Cl)c(Cl)c1)c1ccccn1 | 90.1
O=C(O)c1cc(=O)[nH]c(=O)[nH]1 [Orotic acid (6-Carboxyuracil)] | 121
O=c1n(CCCN2CCN(c3cccc(Cl)c3)CC2)nc2ccccn12 [Trazodone hydrochloride] | 91.2
